The RNAGym collection of RNA variant scans (doi:10.1073/pnas.2313332121)
Variants at the background level are over-represented here.

B1: TPR 5TU (parent)
chain: GGAUCUUCUCGAUCUAACAAAAAAGACAAAUCUGCCACAAAGCUUGAGAGCAUCUUCGGAUGCAGAGGCGGCAGCCUUCGGUGGCGCGAUAGCGCCAACGUUCUCAACUAUGACACGCAAAACGCGUGCUCCGUUGAAUGGAGUUUAUCAUG

Variants of: B1
Assay: polymerase ribozyme fitness, log enrichment relative to wild type (log ratio); higher = more active; in vitro selection for triplet polymerase activity
Summary of the method: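 Each subunit of a heterodimeric triplet polymerase ribozyme was represented by a PCR-built, transcribed mutant library that underwent triplicate single-round in vitro selection with frozen incubation at −7 °C. Extended constructs were recovered by gel excision, streptavidin-bead capture and RT-PCR, and Illumina sequencing of input and output libraries kept genotypes with ≥10 input reads and ≥1 read per output. Fitness is the logarithm of genotype enrichment relative to wild-type enrichment, from inverse-variance-weighted replicate averages, with a logarithm base of 2.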

Row | Variant | polymerase ribozyme fitness (log ratio)
1 | GGAUCUUUUCGAUCUCACAAAAAAGACAAAUCUGCCACAAAGCUUCAGAGCAUCUUCGGAUGCAGAGGCGGCAGCAUUCGGUGGCGAGAUAUCGCCAACGUUCUCAACUAUGACACGCAAAACGCGUGCUCCGUUGAAUGGAGUUUAUCAUG | ≤ -4.2
2 | GGAUCUUUUCGAUCUAGCAAAAAAGACAAAUCUGCCACAAAGCUUGAGAGCAUCGUCGGCUGCAGAGGCGGCAGCAUUCGGUGGCGCGGUAGCGGCAACGUUCUCAACUAUGACACGCAAAACGCGUACUCCGUUGAAUGGAGCUUAUUAUG | ≤ -4.2
3 | GGAUCUUUUCGAUCUCACAAAAAAGACAAAUCUGUCACAACGCUUGAGAGCAUCUUCGCAAGCAGAGGCGGCUGCCUUCGGUGGCGCUAUAGCGCCAACUUUUUCAACUAUGACACGCAAAACGCGUGCUCCGUUGAAUGAAGUUUAUCAUG | ≤ -4.2
4 | GGAUCUUGUCGAACUAACAAAAAAGAUAAAUCUGCAACAAAGCUUGAGAGCAUCUUCGGAUGCAGAGGCGGCAACCUUCGGUGGCGCGGUAGCGCCAACGUUCUCAACUAUGACAAGCAAAACGCGUGCUGCGUUGAAUGGAGUUUAUCAUG | ≤ -4.2
5 | GGAUCUUGUCGACCUAGCAAAAAAGACAAAUCUGCCACAAAGCUUGAGAGCAUCUUCGGAUGCAGAGGCGGUAGCCUUCGAUGGCGAGAGAGCGUCAACGUUCUCAACUAUGACACGCAAAGCGCGUGCUCCGUUGAAUGGAGUUUAUCAUG | ≤ -4.2
6 | GGAUCUUUUCGAUCUAGCAAUAAAGACAAAUCUGCCACAAAGCUUGAGAGCAUCUUCGGAUGCAGAGGCGGCAGCCUUCGGUGGUGCGAUAGCGCCAACGUUCUCAACUAUGACACGCAAAACGCAUGCUCCGUUGAACGGAGUUUAUCAUG | ≤ -4.2
7 | GGAUCUUUUCGAUCUAGCAAAAGAGACAAAUCUGCCACAAAGCUUGAGAGCAUCUUCCGAUGCAGAGGCGGCAGCCUUCGGUGGCGCGAUAGCUCCAACGUUCUCAACUCGGACACGCAAAACGCGUGCUCCGUUGAAUGGAGUUUAUCAUG | ≤ -4.2
8 | GGAUCUUGUCGAUCUAACAAAAAAGACAAAUCUGCCACAAAGCUUGAGAGCAUCUUCGGAUGCAGAGGCGGCAGCCUUCGGUGUCGCGAUAGCGCCAACUUUCUCAACUAUGACACGCAAAACGCGUGCUCUGUUGAAUGGAGAUUAUCAUG | ≤ -4.2
9 | GGAUCUUGUCGAUCUAACAAAAAAGACAAAUCUGCCACAAAGCUUGAGAGCAUCUUCGGAUGCAGAGGCGGCAGCCUUCGGUGUCGCGAUAGCGCCAACGUUCUCAACUAUGACACGCAAAACGCGUGCUCCGUUGAAUGGAGUUUAUCAUG | ≤ -4.2
10 | GGAUCUUGUCGAUCUAACAAAAAAGACAAAUCUGCCACAAAGCUUGAGAGCAUCUUCGGAUGCAGAGGCGGCAGCCUUCGGUGACGCGAUAGCGCCAACGUUCUCAACUAUGACACGCAAAACGCGUGCUCCGUUGAAUGGAGUUUAUCAUG | -3.43
11 | GGAUCUUGGCGAUCUAACAAAAAAGACAAAUCCGCCACAAAGCUUGUGAGCAUCUUCGGAUGCAGAGGCGGCAGCCUUCGGUGGCGCGAUAGCGCUAACGUUCUCAACUAUGACACGCAAAACGCGUGCUCCGUUAAAUGGAGUUUAUCAUG | ≤ -4.2
12 | GGAUCUUGUCGAUCUAACAAAAAAGACAAAUCUGCCACAAAGCUUGAGAGCAUCUUCGGAUGCAGAGGCGGCAGCCUUCGGUGGCGCGAUAGCGCCAACGUUCUCAACUAUGACACGCAAAACGCGUGCUCCGAUGAAUGGAGUUUAUCAUG | ≤ -4.2
13 | GGAUCUUUUCGUUCUAACAAAAAAGACAAAUCUGCCACAAAGCUUGCGAGCAUCUUCGGAUGCAGAGGCGGCAGCCUUCGGUGGCGCGAUAGUGCCAACGUUCGCAACUAUGACACGCAAAACGCGUGCUCCGUUGAAUGGAGUUUAUCAUG | ≤ -4.2
14 | GGAUCUUGUCGAUCUAACAAAAAAGACAAAUCUGCCACAAAGCGUAAGAGCAUCUUCGGAUGCAGAGGCGGCAGCCUUCGGUGACGCGAUAGCGCCAACGUUCUCAACUAUGACACGCAAAACGCGUGCUCCGUUGAAUGGAGAUUAUCAUG | ≤ -4.2
15 | GGAUCUUGUCGAUCUAACAAAAAAGACAAAUCCGCCACAAAGCUUGAGAACAUCUUCGGAUGCAGAGGCGGCAGCCUUCGGUAGCGCGAUAGCGCCAACGUUCUCAACUAUGACACGCAAAACGCGUGCUCCGUUGAAUGGAGCUUAUCAUG | ≤ -4.2
16 | GGAUCUUGUCGAUCUAACAAAAAAGACAAAUCUGCCACAAAGCUUCAGAGCAUCUUUGAAUGCAGAGGCGGCAGCCUUCGGUGGCGCUAUAGCGCGAACGUUCUCAACUAUGACACGCAUAACGCGUGCUCCGUUGAAUGGAGUUUAUCAUG | ≤ -4.2
17 | GGAUCUUGUCGAUCCAACAAAAAAGACAAAUCUGCCACAAAGCUUGAGAGCGUCUUGGUAUGCAGAGGCGGCAGCCUUCGGUGGCGGGAUAGCGCCAACGUUCUCAACUAUGACACGCAAAACGCGUGCUCCGUUGAAUGGAGUUUAUCAUG | -3.95
18 | GGAUCUUGUCGAUCUAACAAAAAAGACAAAUCUGCCACAAAGCUUGAGAGCAUCUUCGGAUGCAGACGCGGCAGCCUUCGGUGGCGCGAUAUCGCCAAUGUUCUCAUCUAUGACACGCAAAACGCGUGCUCCGUUGAAUGGAGUUUAACAUG | ≤ -4.2
19 | GGAUCUUGUCGAUCUAACAAAAAAGACAAAUCUGCCACAAAGCUUGAGAGCAACUUGGGAUGCAGAGGCGGCAGCCUUCGGUGGCGCGAUAGCGCUAACGUUCUCAAUUAUGACACGCAAAACGCGUGCUCCGUAGAAUGGAGUUUAUCAUG | ≤ -4.2

Row | Variant | polymerase ribozyme fitness (log ratio)
20 | GGAUCUUGUCGAUCUAACAAAAAAGACAAAUCUGCCACAAAGCUUGAGAGCAUCUUCGCAUGCAGAGGCGGCAGCCUUCGGUGGCGCGAUAGCGCGAACGUUCUCAACUAUGACACGCAAAACGCGUGCUCCGUUGAAUGGAGUUUUCCAUG | ≤ -4.2
21 | GGAUCUUUUCGAUCUAGCAAAAAAGACACAUCUACCACAAAGCUUGAGAGCAUCUUAGGAUGCAGACGCGGCGGCCGUCGGUGGCGCGAUUGCGCCGACGUUCUCAACUAUGACACGCAAAACGUGUGCUCCGUUGAAUGGAGUUUAUCAUG | ≤ -4.2
22 | GGAUCUUGUCGAUCUAACAAAAAAGACAAAUCUGCCACAAAGCUUGAGAGCAUCUUCGGAUCCAGAGGCUGCAGCCUUCGGUGGCGCGAUAGCGCAAACGUUUUCAACUAUGACACGCAAAACGCGUGCUCCGUUGAAUGGAGUUUAUCAUG | ≤ -4.2
23 | GGAUCUUUUCGAUCUGACAACAAAGUCAAAUCUGCCACAAAGCUUGAGAGCAUCUUCGGAUGCAGAGGCGGCACCCUUCGGUGGCGCGAUAGCGUCAACGUUCUGAACUAUGACACGUAAAACGCGUGCUCCGCUGAAUGGAGAUUAUCAUG | ≤ -4.2
24 | GGAUCUUUUCGAUCUAGCAAAAAAGACAAUUCUGCCACAAAGCUUGAGAGCAUCUUCGGAUGCAGAGGCGGCAGCCUUCGGUGGCGCGAUAGCGUCAACGUUCUCAACUAUGACACGCAAAACGCAUGCUCCGUUGAAUGGAGUUUAGCAUG | ≤ -4.2
25 | GGAUCUUGUCGAACUAACAAAAAAGACAAAUCGGCCACAAAGCUUGAGAGCAUCUUCGGAUGCAGAGGCGACAACCUUCGGUGGCGGGAUAGCGCAAACGUUCUAAACUAUGACACGCAAAACGCGUGCUCCGUUGAAUGGAGUUUAUCAUG | ≤ -4.2
26 | GGAUCUUUUCGAUCUUACAAAAAAGACAAAUCUGCCACAAAGCUUGAGAGCAACUUCGGAUGCAGAGGCGGCAGCCUUCGGUGGCGUGAUAGCGCCAACGUUCUCAACUAUGACACGCAAAACGCGUGCUCCGUUGAAUGGAGCUUAUCAUG | ≤ -4.2
27 | GGAUCUUGUCGAUCUAACAAAAAAGACAAAUCUGCCACAAAGCUUGAGAGCAUCAUCGGAUGCAGAGGCGGCAGCCUUCGGUGGCGCGAUAGCGCCAACGUUCUCAACUAUGACACGCAAAACGCGUGCUCCGUUGAAUGGAGUUUAUCAUG | -2.91
28 | GGAUCUUGUCGAUCUAACAAAAAAGACAAAUCUGCCACAAAGCUUGAGAGCAUCUUCGGAUGCAGAGGCGGCAGCCUUCGGUGGCGCGAUAGCGCCAACGUUCUCAACUAUGACACGCAAAACGCGUGCUCCGUUGAAGGGAGUUUAUCCUG | ≤ -4.2
29 | GGAUCUUUUCGAUCUUACAAAAAAGACAAAUCGGCCACAAACCUUGAGUGCAUCUUCGGAUGCAGAGGCGGCAGCCUUCGGUGGAGCGAUAGCGCCAACGUUCUCAACUAUGACACGCAAAACGCGUGCUCCGUUGAAUGGAGUUGAUCAUC | ≤ -4.2
30 | GGAUCUUGUCGAACUAACAAAAAAGACAAAUCUGCCACAAAGCUUGAGAGCAUCUUCGGAUGCAGAGGCGGCAGCCUUCGGUGGCGCAAUAGCGCCAACGUUCUCAACUAUGACACGUAAAACGCGUGCUCCGUUGAAUGUAGAUUAUCAUG | ≤ -4.2
31 | GGAUCUUGUCGAUCUAACAAAAAAGACAAAUCUGCCACAAAGCUUGAGAGCAUCUUCGGAUGCAGAGGCGGCAGCCUUCGGUGGCGCGAAAGCGCCAACGUUCUCAACUAUGACACGCAAAACGCGUGCUCCGAUGCAUGGAGUUUAUCAUG | ≤ -4.2
32 | GGAUCUUGUCGAUCUAACAAAAAAGACAAAUCUGCCACAAAGCUUGAUAGCAACUUCGGAUGCAGAGGCGGCAGCCUUCGGUGGCGCGAUAGCUCCAGCGUUCUGAACUAUGGCACGCAAAACGCGUGCUCCGUUGAAUGGACUUUAUCAUG | ≤ -4.2
33 | GGAUCUUGUCGAUCGAACAAAAAAGACAAAUCUGCCACAAAGCUUGAGAGCAACUUUGGGUGCAGAGGCGGCAGCCUUCGGUGGCGCGAUAGCGUCAACGUUCCCAACUCUGACACGCAAAACGCGUGCUCCGUUGAAUGGAGUUUAUCAUG | ≤ -4.2
34 | GGAUCUUUUCGAUCUACCAAAAUAGACAAAUCUGCCACAAAGCUUGAGAGCAUCUUCGGAUGCAGAGGCGGCAGCCUUCGGUGGCACGGUCGCGCCAAGGUUCUCAACUAUGACACGCAAAACGCGUGCUCCGUUGAAUGGAGUUUAUCAUG | ≤ -4.2
35 | GGAUCUUGUCGAUCUAACAAAAAAGACAAAUCUGCCACAAAGCUUGAGAGCAUCUUCGGAUGCAGAGGCGGCAGCCUUCGGUCGCGCGAUAGCGCCAACGUUCUCAACUAUGACACGCAAAACGCGUGCUCCGUUGAAUGGAGUUUAUCAUG | ≤ -4.2
36 | GGAUCUUGUCGAACUAACAAAAAAGACAAAUCUGCCACAAAGCUUGAGAACAUCUUCGGAUGCAGAGGCGACAGCCUUCGGUGGCGCGAUAGCGUCAACGUUCUCAACUAUGACACGCAAAACGCGUGCUCCGUUGAAAGGAGUUUAUCAUG | ≤ -4.2
37 | GGAUCUUGUCGAUCUAACAAAAAAGACAAAUCCGACACAAAGCUUGAGAGCAUCUUCGGAUGCAGAGGCGGCAGCCUUCGGUGUCGCGAUAGCGCCAACGUUCUCAACUAUGACACGCAAAACGCGUGCUCCGUUGAAUGGAGUUUAUCAUG | ≤ -4.2
38 | GGAUCUUUUCGAUCUCACAAAAAAGACAAAUCUGCCACAAAGCUUGAGAGCAUCUUCGGAUGCAGGGGCGGCAGCCUUCGGUGGGGCGAUAGCGCCAACGUUCUCAACUAUGACACGCAAAACGCGUGCUCCGUUGAAUGGAGUUUAUCAUG | ≤ -4.2
